# Assay results published in publication PMC6607443, “Systematic identification of recognition motifs for the hub protein LC8” (Life Science Alliance, 2019).
# Amino acid sequences for entries named in this document (tags omitted).
# UniProt P63167: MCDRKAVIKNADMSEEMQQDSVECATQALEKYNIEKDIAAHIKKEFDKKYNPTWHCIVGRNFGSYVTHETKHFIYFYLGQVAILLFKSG
# These are yes or no findings as the source states them, for the method shown. Some results given as binding are weak or reduced against the parent protein; the word gives no strength.
# Biological target: dynein light chain LC8 (UniProt P63167)
# Test: ITC; peptide (500 μM) injected into 25 μM LC8 in the cell; 25°C; 50 mM sodium phosphate, 50 mM NaCl, 1 mM sodium azide, 5 mM β-mercaptoethanol, pH 7.5; single-site model; averages of two to three experiments; both purified
row,Binder,binding
1,YGCTRHQSVQTEDG [MAST1 peptide],binds
2,NQSFTTASTQTPPQ [CAPRIN2 peptide],binds
3,"STQTPSPAPASDMP [bassoon (BSN) peptide exactly matching the ProP-PD hit, TQT motif at the N-terminus]",no binding (tested: 500 μM peptide injected into 25 μM LC8)
4,RSFVLPVESTQDVSSQ [CRYBG1 peptide],no binding (tested: 500 μM peptide injected into 25 μM LC8)
5,SPSPTGLPTQTPGF [ARAP3 peptide],binds weakly
6,SQNHWTRSTQTTRE [MUC4 peptide (…)],binds
7,SKTQQTFGSQTECT [TOGARAM1 peptide],binds weakly
8,DDNHWTRSTQTTRE [MUC4 peptide with N-terminal aspartates (…)],binds
9,KTLTFSGSSQTVTP [QSER1 peptide],no binding (tested: 500 μM peptide injected into 25 μM LC8)
10,TQDDYFKDKRVHHFRRS [DAZL peptide (272-288)],no binding (tested: 500 μM peptide injected into 25 μM LC8)
11,DDHSREKGTQTSGD [SLC9A2 peptide],binds
12,KITFTKPSTQTTNT [EMSY peptide],no binding (tested: 500 μM peptide injected into 25 μM LC8)
13,LPRKVDTAAQTNSR [IRS1 peptide],no binding (tested: 500 μM peptide injected into 25 μM LC8)
14,TTLPVLTSTATKST [MUC5B-1 peptide],no binding (tested: 500 μM peptide injected into 25 μM LC8)
15,EGYRGTANTTTAAYLA [MSTL1 peptide],no binding (tested: 500 μM peptide injected into 25 μM LC8)
16,EKELRHIGTQISSD [ICE1 peptide],binds
17,RAAALPEETRSSRR [ZNF469 peptide],no binding (tested: 500 μM peptide injected into 25 μM LC8)
18,AKESCNMETQTSST [OFD1 peptide],binds
19,ITSYNSQGTQLTVE [KY peptide],no binding (tested: 500 μM peptide injected into 25 μM LC8)
20,DDTLPRFQTQVDRR [SCRN2 peptide with N-terminal aspartates (…)],no binding (tested: 500 μM peptide injected into 25 μM LC8)
21,TEAKDQCSTQTDFN [EPAS1 peptide],no binding (tested: 500 μM peptide injected into 25 μM LC8)
22,NQSFLRTPIQRTPH [SAV1 peptide],no binding (tested: 500 μM peptide injected into 25 μM LC8)

row,Binder,binding
1,LQETLTTSSQANLS [PPP2R3A peptide],no binding (tested: 500 μM peptide injected into 25 μM LC8)
2,ARAGRSVSTQTGSM [CIZ1 peptide],binds
3,DERLMCTGSQTFDD [EFL1 peptide],no binding (tested: 500 μM peptide injected into 25 μM LC8)
4,GQGAALTTATQTTHLE [GP1BA peptide],binds weakly
5,PLQATISKSQTNPV [UBN2 peptide],no binding (tested: 500 μM peptide injected into 25 μM LC8)
6,PAPPSYSDKGVQTPSK [ZFPM1 peptide],binds
7,TLQQPLELTASQLPAG [OTOG peptide],no binding (tested: 500 μM peptide injected into 25 μM LC8)
8,PVLTSATGTQTSPA [MUC3A peptide],binds
9,CLKETLQITQTEVQ [NFYC peptide],no binding (tested: 500 μM peptide injected into 25 μM LC8)
10,DDSGGNATTQTTSD [ROR1 peptide],binds weakly
11,VRTLPRFQTQVDRR [SCRN2 peptide (…)],no binding (tested: 500 μM peptide injected into 25 μM LC8)
12,SSSTRSIDTQTPSV [GLCCI1 peptide],binds
13,YDSMDHLDKQTQTPKT [CCL2 peptide],binds
14,AASLIQKMLQTDPTAR [PLK1 peptide],no binding (tested: 500 μM peptide injected into 25 μM LC8)
15,HPETQDSSTQTDTS [SPAG5 peptide],binds
16,DDHSGNAQVTQTKFD [DDX1 peptide],no binding (tested: 500 μM peptide injected into 25 μM LC8)
17,SSRSAFSPLQPNAS [DMRTA2 peptide],no binding (tested: 500 μM peptide injected into 25 μM LC8)
18,IVSCVSVSTQTASD [KMT2C peptide],no binding (tested: 500 μM peptide injected into 25 μM LC8)
19,"PRATAEFSTQTPSP [bassoon (BSN) peptide, modified version with the TQT motif near the C-terminus]",binds
20,SFRHPGYSTQTHVN [KLK7 peptide],no binding (tested: 500 μM peptide injected into 25 μM LC8)
21,QDFMKHLDKKTQTPKL [CCL7 peptide],binds
22,KHSGRQLTLQHHMG [CUL3 peptide],no binding (tested: 500 μM peptide injected into 25 μM LC8)
